# Experimental data from paper PMC5892938.
# Some of the results follow. At the low end of the ranking the order means little.
# Molecular target: GST-SBP-SLBP (stem-loop binding protein) (UniProt Q14493)
# Assay: targeted RNA Bind-n-Seq;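 also: DESeq read counts versus GST-SBP nonspecific binding control pulldown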
# Conditions: RBNS binding buffer: 25 mM Tris pH 7.5, 150 mM KCl, 3 mM MgCl2, 0.1% Tween, 0.5 mg/mL BSA, 1 mM DTT; 27 nM protein, 750 pM RNA pool; temperature not stated; high values mean tight binding
row,Sequence,binding signal (log2 fold change)
1,GGUCACGUCUCAAUCAACUCUAGUCCAGGAGUUUUCUCCUGUUAUCUCAACAGCUCGCAGUCAAG,-0.224
2,GGUCACGUCUCAAUCAACUCAACUCCCAGGGAAACCCCUGGUAAUUUCAACAGCUCGCAGUCAAG,-0.0604
3,GGUCACGUCUCAAUCAACUCUCCCGAGGGGGGGAAAACCCCUUUACCCUCAUCCUCAACAGCUCGCAGUCAAG,-0.469
4,GGUCACGUCUCAAUCAACUCUUUCUCCAGGGAAAACCCUGGCUAUUUCAACAGCUCGCAGUCAAG,0.0586
5,GGUCACGUCUCAAUCAACUCGUUUUCAGGAGUUUUCUCCUGUUAUUUCAACAGCUCGCAGUCAAG,0.0599
6,GGUCACGUCUCAAUCAACUCAUUUUCCAGGGAAAGCCCUGGCUUUUUCAACAGCUCGCAGUCAAG,-0.172
7,GGUCACGUCUCAAUCAACUCAUUCGAGGGGGGGAAAACCCCUUUGCCCUCAACAUCAACAGCUCGCAGUCAAG,-0.295
8,GGUCACGUCUCAAUCAACUCAUUCGCAGGAGUUUACUCCUGGUAUUUCAACAGCUCGCAGUCAAG,-0.142
9,GGUCACGUCUCAAUCAACUCAUUUCCAGGAGUUUCCUCCUGCAAACUCAACAGCUCGCAGUCAAG,-0.168
10,GGUCACGUCUCAAUCAACUCUAUGGCAGGAGUUUUCUCCUGGAUAUUCAACAGCUCGCAGUCAAG,-0.0377
11,GGUCACGUCUCAAUCAACUCCCUCGAGGGGGGGAAAACCCCUUUACCCUCAUAAUCAACAGCUCGCAGUCAAG,0.109
12,GGUCACGUCUCAAUCAACUCUAUCUCCAGGGAAAGCCCUGGUUAUUUCAACAGCUCGCAGUCAAG,0.00761
13,GGUCACGUCUCAAUCAACUCAUCGUCAGGAGUUUCCUCCUGCAAAUUCAACAGCUCGCAGUCAAG,0.169
14,GGUCACGUCUCAAUCAACUCAUUUCCAGGAGUUUACUCCUGUUUUUUCAACAGCUCGCAGUCAAG,-0.102
15,GGUCACGUCUCAAUCAACUCAUACGAGGGGGGGAAAACCCCUUUGCCCUCAAUCUCAACAGCUCGCAGUCAAG,-0.167
16,GGUCACGUCUCAAUCAACUCAGUUUCAGGAGUUUCCUCCUGUUUAUUCAACAGCUCGCAGUCAAG,-0.00181
17,GGUCACGUCUCAAUCAACUCUACUUCCAGGGAAAACCCUGGUUUUUUCAACAGCUCGCAGUCAAG,-0.0647
18,GGUCACGUCUCAAUCAACUCAUCGUCAGGAGUUUACUCCUGCAUUCUCAACAGCUCGCAGUCAAG,0.239
19,GGUCACGUCUCAAUCAACUCUAUUUCAGGAGUUUACUCCUGCUUAUUCAACAGCUCGCAGUCAAG,0.0572
20,GGUCACGUCUCAAUCAACUCUCUAGAGGGGGGGAAAACCCCUUUGCCCUCAUCCUCAACAGCUCGCAGUCAAG,0.441
21,GGUCACGUCUCAAUCAACUCUAUUCCAGGAGUUUUCUCCUGUUUACUCAACAGCUCGCAGUCAAG,-0.0675
22,GGUCACGUCUCAAUCAACUCCAACGAGGGGGGGAAAACCCCUUUACCCUCUACCUCAACAGCUCGCAGUCAAG,-0.281
23,GGUCACGUCUCAAUCAACUCUUUUUCAGGAGUUUACUCCUGCUAUUUCAACAGCUCGCAGUCAAG,0.0813
24,GGUCACGUCUCAAUCAACUCAAUUCCCAGGGAAACCCCUGGCUUAUUCAACAGCUCGCAGUCAAG,0.145

row,Sequence,binding signal (log2 fold change)
1,GGUCACGUCUCAAUCAACUCAUCUUCCAGGGAAAACCCUGGCAUAUUCAACAGCUCGCAGUCAAG,0.0172
2,GGUCACGUCUCAAUCAACUCAUUCUCCAGGGAAAUCCCUGGUAUUUUCAACAGCUCGCAGUCAAG,-0.181
3,GGUCACGUCUCAAUCAACUCAUCGUCCAGGGAAACCCCUGGUAAAUUCAACAGCUCGCAGUCAAG,0.112
4,GGUCACGUCUCAAUCAACUCUACUUCAGGAGUUUACUCCUGUUAUCUCAACAGCUCGCAGUCAAG,0.0944
5,GGUCACGUCUCAAUCAACUCUUCCCCCAGGGAAAUCCCUGGUAAUCUCAACAGCUCGCAGUCAAG,0.00342
6,GGUCACGUCUCAAUCAACUCAAUCUCCAGGGAAAUCCCUGGCAUUCUCAACAGCUCGCAGUCAAG,0.193
7,GGUCACGUCUCAAUCAACUCAUUUUCAGGAGUUUACUCCUGCAAUUUCAACAGCUCGCAGUCAAG,-0.212
8,GGUCACGUCUCAAUCAACUCUUCGUCAGGAGUUUUCUCCUGUUAACUCAACAGCUCGCAGUCAAG,-0.0266
9,GGUCACGUCUCAAUCAACUCCCUCGAGGGGGGGAAAACCCCUUUACCCUCUUUCUCAACAGCUCGCAGUCAAG,0.243
10,GGUCACGUCUCAAUCAACUCUUCCCCCAGGGAAAUCCCUGGCUAACUCAACAGCUCGCAGUCAAG,0.086
11,GGUCACGUCUCAAUCAACUCUAUCCCCAGGGAAAGCCCUGGCUAUCUCAACAGCUCGCAGUCAAG,0.197
12,GGUCACGUCUCAAUCAACUCCAACGAGGGGGGGAAAACCCCUUUACCCUCCAAAUCAACAGCUCGCAGUCAAG,0.107
13,GGUCACGUCUCAAUCAACUCAUCCCCAGGAGUUUUCUCCUGCAAUCUCAACAGCUCGCAGUCAAG,0.068
14,GGUCACGUCUCAAUCAACUCAAACGAGGGGGGGAAAACCCCUUUGCCCUCAACAUCAACAGCUCGCAGUCAAG,-0.0481
15,GGUCACGUCUCAAUCAACUCCAAAGAGGGGGGGAAAACCCCUUUGCCCUCCAUAUCAACAGCUCGCAGUCAAG,-0.35
16,GGUCACGUCUCAAUCAACUCAAUUCCCAGGGAAAACCCUGGCUUAUUCAACAGCUCGCAGUCAAG,-0.333
17,GGUCACGUCUCAAUCAACUCAUCUUCAGGAGUUUCCUCCUGCUUUCUCAACAGCUCGCAGUCAAG,0.163
18,GGUCACGUCUCAAUCAACUCUUUCGAGGGGGGGAAAACCCCUUUACCCUCAUAUUCAACAGCUCGCAGUCAAG,-0.338
19,GGUCACGUCUCAAUCAACUCAAUUUCCAGGGAAACCCCUGGUUUAUUCAACAGCUCGCAGUCAAG,-0.106
20,GGUCACGUCUCAAUCAACUCUUCUCCCAGGGAAAGCCCUGGUAUAUUCAACAGCUCGCAGUCAAG,-0.0641
21,GGUCACGUCUCAAUCAACUCAAUCGCAGGAGUUUUCUCCUGGUAACUCAACAGCUCGCAGUCAAG,0.117
22,GGUCACGUCUCAAUCAACUCCCCAGAGGGGGGGAAAACCCCUUUACCCUCAACCUCAACAGCUCGCAGUCAAG,0.0288
23,GGUCACGUCUCAAUCAACUCAUUCUCCAGGGAAACCCCUGGUUUUCUCAACAGCUCGCAGUCAAG,-0.0852
